From PubChem BioAssay AID651820 (National Center for Advancing Translational Sciences (NCATS), 2012)
“And” between values parts separate entries of the source, which are not always exact repeats. Equal entries are not always repeated. The whole screen tested about 340,000 compounds, of which about 12,000 (3.5%) were called active. The shares of active, inactive and inconclusive entries below differ from those in the screen. Calls come from the whole dose curve; as a rule, active = well fitted inhibition curve with a large enough effect; inconclusive = small, poorly fitted or top-dose-only effect, or another doubt; inactive = no such curve, though single readings can be large or run the other way. Where the call is inconclusive, the potency comes from a doubtful curve fit.

Assay: qHTS Assay for Inhibitors of Hepatitis C Virus (HCV)
Conditions: Huh7.5.1 HCVcc-Cre (HCVcc is cell-culture hepatitis C virus) infection, luciferase reporter, 44 h; activity change, negative = inhibition: at 41.8 µM (top of the series) unless noted
Outline: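 Cells seeded at 1,000/well and cultured 4 h, then compounds added followed by HCVcc-Cre virus (~0.5 moi). After 44 h further culture, luciferase substrate was added, plates held 15 min at room temperature, and luminescence read for 15 sec.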
% is set by controls: 0 for no effect and ±100 for the full control effect; potency is the fitted concentration of half-maximal effect; tags give direction and shape of the fitted curve.

SMILES	Potency	activity change, negative = inhibition
COCCN(CCOC)S(=O)(=O)c1ccc(C(=O)Nc2nc(-c3ccncc3)cs2)cc1	inconclusive: 8.91 µM [inhibitor, partial curve]	
O=C(NCCc1ccc(Cl)cc1)c1cnc2n(c1=O)CCS2	inconclusive: 22.4 µM [inhibitor, single point]	
CC1CCN(S(=O)(=O)c2csc(C(=O)Nc3ccccc3)c2)CC1	inconclusive: 11.2 µM [inhibitor, partial curve]	
Cc1c(Cl)cccc1NC(=S)NCCc1ccc(C(F)(F)F)cc1	active: 11.2 µM	
O=C(N[C@@H]1c2ccccc2CC[C@@H]1OCc1ccccc1)c1ccc(-c2ccccc2)cc1	inactive	
COc1cccc(NC(=O)C(=O)c2cn(CC(=O)N3CCCC3)c3ccccc23)c1	inconclusive: 2.51 µM [inhibitor, full curve]	
CCCCn1c(O)c(C(CC)=Nc2ccc(OC)cc2OC)c(=O)[nH]c1=O	inconclusive: 31.6 µM [inhibitor, single point]	
CN1CCC(=C2c3ccccc3C=Cc3ccccc32)CC1	inconclusive: 2.82 µM [inhibitor, partial curve]	inactive: 2.21% [at 8.37 µM]
Cc1nonc1C(=O)N/N=C/c1ccc(O)cc1O	inconclusive: 20 µM [inhibitor, single point]	
O=S(=O)(c1ccc(Cl)cc1)c1ccc(Cl)cc1	inconclusive: 35.5 µM [inhibitor, partial curve, poor fit]	
CCOC(=O)C1=CN(CC2CCCCC2)CCC1=O	inactive	
CC1=NNC(=O)C1CCC(=O)N/N=C(\C)c1ccc(Cl)cc1 (stereo unspecified)	inconclusive: 31.6 µM [inhibitor, single point]	
COc1cccc(CC(NC(C)=O)C(=O)NC2CCN(c3c(Cc4ccccc4)c(C)nc4ncnn34)CC2)c1OC (stereo unspecified)	inconclusive: 31.6 µM [inhibitor, single point]	
Cc1cc(NC(=O)CSc2ncnc3sccc23)no1	inactive	
O=C(OCC(=O)N1CCN(C(=O)c2ccco2)CC1)c1cc(F)c(F)cc1Cl	inactive	
OC1CCCN(c2c3c(nc4cc(-c5cccc(F)c5)nn24)CCCC3)C1 (stereo unspecified)	active: 6.31 µM	
CC(c1ccccc1C(O)c1ccccc1)N(C)C (stereo unspecified)	inactive	
COC(=O)/C(C#N)=C(/Nc1ccc(F)c(Cl)c1)C(F)(F)F	inactive	
Cc1nc(C(=O)N2CCCC(Nc3ccc(C)c(C)c3)C2)cs1 (stereo unspecified)	inactive	
Cc1ccc2c(C)c(C(=O)N3CCCCC3CO)oc2c1C (stereo unspecified)	inconclusive: 5.62 µM [inhibitor, single point]	
O=C(Nc1cccnc1)/C(N=Nc1cccnc1)=C(\O)c1ccccc1	inconclusive: 31.6 µM [inhibitor, single point]	
COc1ccccc1NC(=O)C1CCN(S(=O)(=O)c2cccs2)CC1	inactive	
CCOc1ccccc1CN1CCN(CC2=Cc3cc(OC)ccc3OC2)CC1CCO (stereo unspecified)	inconclusive: 22.4 µM [inhibitor, single point]	
COc1cc(NC(=O)c2cc(OC)c(OC)c(OC)c2)ccc1NC(=O)c1cccs1	inconclusive: 2 µM [inhibitor, full curve]	

SMILES	Potency	activity change, negative = inhibition
COc1ccc(Cn2c(SCC#N)nc3ccc(N4CCOCC4)cc3c2=O)cc1	active: 5.01 µM	
Cc1ccc(N2C(=O)N(CC(=O)Nc3cc(C)cc(C)c3)C(=O)C2C)cc1 (stereo unspecified)	inconclusive: 25.1 µM [inhibitor, single point]	
O=C1c2ccccc2C(=O)c2cc(N3CCCCC3)ccc21	inconclusive: 11.2 µM [inhibitor, single point]	
COc1ccc(-n2c(-c3ccc(Br)cc3)n[nH]c2=S)cc1	inactive	
Cn1c2ccccc2c(=O)c2c(=O)n(-c3ccccc3)c(-c3ccc(C(C)(C)C)cc3)nc21	inconclusive: 15.8 µM [inhibitor, single point]	
Cc1cc2oc(=O)cc(-c3ccccc3)c2c(C)c1-c1ccc(C#N)cc1	inconclusive: 7.94 µM [inhibitor, partial curve]	
COCCCNC(=O)C(=O)NCCCOC(C)C	inconclusive: 5.62 µM [inhibitor, single point]	
COc1ccc(-c2csc(NC(=O)CCN3C(=O)C4CC=CCC4C3=O)n2)cc1OC (stereo unspecified)	inconclusive: 7.94 µM [inhibitor, partial curve]	
CCc1cc2c(SCC(=O)c3ccccc3)ncnc2s1	inconclusive: 11.2 µM [inhibitor, single point]	
COC(=O)C1=C(c2ccccc2OCc2ccccc2)C[C@@H]2CC[C@H]1N2C(=O)NCCc1ccc(F)cc1	inconclusive: 10 µM [inhibitor, single point]	
CC(Oc1ccccc1)C(=O)Nc1cc(Cl)ccc1-n1cncn1 (stereo unspecified)	inconclusive: 3.98 µM [inhibitor, partial curve]	
CCOC(=O)c1cc(C)sc1NC(=O)CSc1nccn1C	active: 12.6 µM	
CCOc1ccc(OCC)c(NC(=O)CC2Oc3ccc(C)cc3NC2=O)c1 (stereo unspecified)	inconclusive: 11.2 µM [inhibitor, partial curve]	
Cc1ccc(S(=O)(=O)Nc2nc(C)c(C(=O)NN)s2)cc1	inactive	
CCN(CC)c1ccc(-c2nc3cnccn3c2NC2CCCC2)cc1	active: 31.6 µM	
CCN1CCN(Cc2ccc(NC(=O)Nc3ccccc3OC)cc2)CC1	inconclusive: 22.4 µM [inhibitor, single point]	
Cc1occc1C(=O)N/N=C/c1ccc(Cl)c([N+](=O)[O-])c1	inconclusive: 20 µM [inhibitor, single point]	
COC(=O)C1=C(c2ccc(F)cc2OCc2ccccc2)C[C@@H]2CC[C@H]1N2C(=O)NCc1cccc(F)c1	inconclusive: 7.08 µM [inhibitor, full curve, poor fit]	
C=CCn1c(COc2cccc(C)c2)nnc1SC(C)C(=O)NC1CC1 (stereo unspecified)	inactive	
Cn1cc(C2NC(=O)c3ccccc3N2)c2ccccc21 (stereo unspecified)	inconclusive: 3.55 µM [inhibitor, single point]	
O=C(Nc1cccc(-c2nnc(-c3ccccc3)o2)c1)C1CCCO1 (stereo unspecified)	inconclusive: 31.6 µM [inhibitor, single point]	
CCOC(=O)N1CCN(C(=O)CNC(=O)c2nn(-c3ccc(OC)cc3OC)c(=O)c3ccccc23)CC1	inactive	
CCCNc1nc(-c2ccccc2)c(C(=O)OCC)cc1C#N	active: 3.16 µM	
Cc1cccn2c(=O)c3cc(C(=O)NCc4ccc(F)cc4)c(=N)n(CC4CCCO4)c3nc12 (stereo unspecified)	inactive	

SMILES	Potency	activity change, negative = inhibition
COc1cc(CNc2ccccc2Oc2cc(=O)n(C)c(=O)n2C)cc(OC)c1OC	inactive	
COc1ccc(C(=O)N(C)c2ccccc2C(=O)NCCc2ccccc2)cc1	inconclusive: 8.91 µM [inhibitor, single point]	
CCCCN(C)CCNC(=O)c1cc2c(-c3ccccc3F)nn(C)c2s1	inconclusive: 14.1 µM [inhibitor, partial curve]	
Fc1ccccc1CNc1nc(-c2cccnc2)nc2ccccc12	active: 35.5 µM	
CC(=O)Nc1ccc(S(=O)(=O)N2c3ccccc3C(C)=CC2(C)C)cc1	inactive	
CCn1c(CCC(=O)Nc2nc3c(s2)CCCC3)nc2cc(S(=O)(=O)N(C)C)ccc21	inconclusive: 11.2 µM [inhibitor, partial curve] and inconclusive: 1.26 µM [inhibitor, full curve]	
Cc1cc2oc(C(=O)NCCc3ccc(S(N)(=O)=O)cc3)c(C)c2cc1C	inconclusive: 5.01 µM [inhibitor, full curve]	
CN1CCC(N(C)S(=O)(=O)c2ccc(NC(=O)COc3ccc(Br)cc3Cl)cc2)CC1	active: 10 µM	
CCc1cc(C(=O)N2CCCC(C(=O)c3ccc(C(F)(F)F)cc3)C2)n(C)n1 (stereo unspecified)	inconclusive: 11.2 µM [inhibitor, single point]	
CCCC(NC(=O)CCl)c1ccccc1 (stereo unspecified)	inconclusive: 35.5 µM [inhibitor, partial curve]	
Cc1ccc(N(Cc2cc(=O)[nH]c3ccccc23)C(=O)C(C)C)c(C)c1	inactive	
CCOC(=O)c1[nH]c2ccc(OC)cc2c1C	inconclusive: 31.6 µM [inhibitor, single point]	
O=C(O)c1c2c(nc3ccccc13)CCCCC2	inactive	
CC(=O)N1c2ccc(S(=O)(=O)N3CCC(C(=O)N4CCN(c5cccc(C(F)(F)F)c5)CC4)CC3)cc2CC1C (stereo unspecified)	inactive	
CCCc1nnc(NC(=O)C23CC4CC(CC(C4)C2)C3)s1	inconclusive: 3.16 µM [inhibitor, single point]	
Nc1nc(Cn2nnc(-c3ccccc3F)n2)nc(N2CCOCC2)n1	inconclusive: 8.91 µM [inhibitor, partial curve, poor fit]	
CCCCN(CC)CCCNC(=O)c1cn(CC(C)C)c(=O)c2c1c1ccccc1n2C	inconclusive: 22.4 µM [inhibitor, single point]	
COc1ccc(NC(=O)CSc2nc3n[nH]c(C)c3c(=N)n2-c2ccc(Cl)c(C)c2)cc1OC	inconclusive: 31.6 µM [inhibitor, single point]	
C=CCN1C(=O)/C(=C\C(C)=C\c2ccccc2)SC1=S	inactive	
CCOC(=O)c1c(C(=O)OCC)c(C)n(Cc2cc(OC)c(OC)c(OC)c2)c1C	inconclusive: 11.2 µM [inhibitor, single point]	
COc1ccc(CCNC(=O)c2ccc(COc3ccccc3OC)o2)cc1	inconclusive: 31.6 µM [inhibitor, single point]	
COCCOC(=O)C1=C(C)NC(SCC(=O)NC(C)(C)C)=C(C#N)C1c1ccco1 (stereo unspecified)	inactive	
